From the RNAGym collection of RNA variant scans (doi:10.7554/elife.90254)
The source gives no read counts; variants with many changes may rest on few reads.

B1: LINE1-mini (parent)
chain: GGCAGAGCUCAACACAGCGUGGCAAAGUGGCUGUGGCUAGACUGCC

Variants of: B1
Assay: self-cleavage, relative activity (ratio to wild type); higher = more cleavage; in vitro, sequencing; the parent is a self-cleaving ribozyme

Variant	self-cleavage
A24U A25C C37A	0.09
G27C C37U U38C	0.01
C18G G33U A41C	0.09
G1A C10A U38A	0.03
A25G A26G G30U C45U	0.08
G5C G7A C31G	0.03
C23A G36U C37G	0.01
C3U C13U G21A	0.04
U9C A16U U20C G27U C37U U43A	0.01
C3U C8A G36C	0.35
C10G C18A G33A G40C	0.02
A12G A25C G27A C37G	0.02
C10A A25G G36U	0
G22A A26G U28A C42A	0.08
A14C C15A U28A C42A	0.12
G1U G7U A14U	0.06
G36A C37G C46G	0.05
A24G G27C G29U G30C G40U	0.04
C3G A14C C18G C37G	0.04
A4C G30C A39C	0.1
C3A G7C C18G U34A	0.06
G5C A6U C8A C18A C31A	0.13
A16G G19A A25G C37A	0.01
A14U C15A A16C A25G	0.06

Variant	self-cleavage
G1A A6U C15A C18A G33A G36A C37A	0.24
U9G C13G G44A	0.01
G1C A14G U32A	0
C8A A16C U20C	0.11
G2U G19U A25U A39U	0.04
A14U A16U G27A	0.05
A16G G29C G40A	0.07
G19C G35U G36C	0.14
C10U A11U C15U U20C G29U G33U	0.03
G7U A11G G22C	0.01
G17C G27C C31U G36U U43A	0
C3G A25C C42U	0.06
C23U C31G G33U	0.11
G5U G7A C18U C46A	0.16
G22U G33A C45A C46A	0.05
A14G G21A A24C G33C C37U A41C	0
G27A U28C G35C G40C	0.09
A6U C10U G33U	0.03
A4C G21C C31A	0.33
G1A A4G G17U C18U U20C A24U C45A	0.03
G30U U32A C37A	0.04
C3A G7C G22U C23U A26U U34C	0.1
G7U U9C C15A G29C	0.02
A4C U34A A41G	0.04

Variant	self-cleavage
A12C G33A U34A	0.03
G7C C8A A11C U20G G33C	0.01
G7C C8G A14G C15U G21C C23G	0.09
C3U C23A U32A	0.2
C18U U34C G35A	0.02
C10U C15U C18A G40A G44A	0.03
A16G G40A C42A	0
G19U A26G U43A	0.09
C15G G21C G40U	0.04
A11U G22U G36A	0.04
C10G G19U C31A C46A	0.03
G5U A11G C15U A16U	0.08
A16U G30A C31A G36C A41U	0.09
C8G C10A G21A G29A U32C	0.01
G35A A41C C46A	0.04
G5C U9A C23G A39G C45G	0.02
A4G C8G U9A G21A G29U U34C	0.16
A14U G21A U43G	0
A12U A24U U28A U34C G36U	0.04
A4G G7C A11C C15U G35A	0.01
G2U G17A U34G	0.21
A4C C13A G40A	0.13
G2A A14U A16C U20G	0.1
G2U A4C C13U G27A U28A G36A A39G	0.03

Variant	self-cleavage
G1C C10A C15A	0.01
C3A A11G G17C U43C	0.03
C15G G21U G44C	0.03
A4U U34C C45U	0.11
C13A A26G G30C U32G	0.02
A4U A14U G33C	0.24
C10G A11G G21A A24U G30C C31A	0.01
A6U G33A A41C	0.06
C10A A11G A39G	0.02
G21U A26U G33A G35A G40U	0.1
C13U G19A U20C A25C	0.14
G7U C13A G30A U43A G44C	0.14
G2A C3A A24U C37A C46U	1.37
A16C C18G G30C C37A	0.04
C18U G19A A26U	0.52
U20A G29A A39U	0.53
A4C U9C C10U C13U C15G C18U G21C	0.01
A14C C18G A24U	0.08
C3G G17U C31A C46A	0.15
C10U G30A G35U C45U	0.03
G36A U43C C46G	0.21
A24C G29A C46G	0.09
U9A C10U A11G A25U A26G	0.02
C3G C18U U38G	0.01

Variant	self-cleavage
G5U A16G G27U U34G	0.01
C15G G19C U28C G30U	0.02
G5A A16C G21U A25C	0.06
G5C C8G A16U G29U G40A C42G	0.02
G21A U28A G30U C31U	1.04
A14U G35C U43A C46U	0.04
A11G G21C G22U G29U	0.01
A11C A39G C46U	0.03
G17C G33A G36U	0.09
G5A C13A U32G G33C C46G	0.04
G7U G30C G35U C46G	0.02
G7C C31G G36U	0.14
G5A A6G G22C G27A U38A G40A	0.02
U9A C10U U38C C42G	0.04
G5C G17U G33U	0.08
C3G G22U C46G	0.36
A6G G29C C37U A39G C42G	0
U9G G30U U34A	0.04
G19C A26C A39U	0.39
A6C C8G U9C G22C	0.01
G5C U20C G40C	0.08
G21A A26G C37A C46U	0.04
A24U C37G A39U	0.05
U32C G33A U38A A39G	0.04

Variant	self-cleavage
A11U C15U G27A	0.47
C3G C13G G21A G22U	0.03
A12U A25U U38A	0.03
G5A A25U G36C	0.02
C3U G17U G40U	0.18
G1C G36C A39U	0.01
C8U U20G A24G	0.1
G1A A4G U9G C23A A25C A41C	0.03
G1C A4G C10U A16U A25G C37U	0.01
A11G C23A G29A C46A	0.02
C3G C10G A12U A14G A25G G35C	0.01
G1U A4U C37U A41C	0.03
C15A G21U G27C	0.2
C8U U28C U32C C42G	0.29
C18A A26G C31U A39U	0.02
A11G A12U G17A G36A	0
U9G C13G A24U G36A	0.27
A39G G44A C45A	0.09
C3A C8U G22U C45G	0.43
G1C G2C C15U U34A G35A G36C	0.01
G21A C23U A26U G27C G29U U34C	0.28
G1A C15A C42U C46U	0.1
G7A C8U A11C G27U	0
C13U C18U G19U U28A	0.08

Variant	self-cleavage
G7A U9C C15A A24C C31A	0.01
C8A U28A C45A	0.21
U34G G36A C45A	0.01
C3A A24G C37A	0.23
A4C A11G U38A	0.04
C13U A14U G22C U43C	0.01
C3A C18G C23A	0.67
A16C G22A U34A	0.05
G2C A4U G22C G33A A39G G40A C45A	0.01
G7U G21A U28C	0.06
C3U G5U A14U	0.38
C10A A12G C15A G22C	0.03
A14C C18G A26U G40C	0.04
A6C A26C U38A G40A	0.01
G5U C18U G29U G35U	0.03
A11U C31A G36A C37G	0.02
C13U C18U G21C	0.01
G2A G17U A26G C37G A41C	0.08
C8G C15U G33A	0.26
G7U C13A G21A G22C A41G	0.03
G1U C13U C42G	0.15
G2A G7A C23U A26U U32G	1.19
G7C U9G C23A	0.55
